Hit rate of the full screen: of about 45,000 compounds, about 65 (0.1%) were called active. Calls follow the shape of the dose curve; as a rule, active = well fitted activation curve with a large enough effect; inconclusive = small, poorly fitted or top-dose-only effect; inactive = no such curve, though single readings can be large or run the other way. This is one part of the list.

UniProt P54803, sequence (P54803 whole entry, looked up): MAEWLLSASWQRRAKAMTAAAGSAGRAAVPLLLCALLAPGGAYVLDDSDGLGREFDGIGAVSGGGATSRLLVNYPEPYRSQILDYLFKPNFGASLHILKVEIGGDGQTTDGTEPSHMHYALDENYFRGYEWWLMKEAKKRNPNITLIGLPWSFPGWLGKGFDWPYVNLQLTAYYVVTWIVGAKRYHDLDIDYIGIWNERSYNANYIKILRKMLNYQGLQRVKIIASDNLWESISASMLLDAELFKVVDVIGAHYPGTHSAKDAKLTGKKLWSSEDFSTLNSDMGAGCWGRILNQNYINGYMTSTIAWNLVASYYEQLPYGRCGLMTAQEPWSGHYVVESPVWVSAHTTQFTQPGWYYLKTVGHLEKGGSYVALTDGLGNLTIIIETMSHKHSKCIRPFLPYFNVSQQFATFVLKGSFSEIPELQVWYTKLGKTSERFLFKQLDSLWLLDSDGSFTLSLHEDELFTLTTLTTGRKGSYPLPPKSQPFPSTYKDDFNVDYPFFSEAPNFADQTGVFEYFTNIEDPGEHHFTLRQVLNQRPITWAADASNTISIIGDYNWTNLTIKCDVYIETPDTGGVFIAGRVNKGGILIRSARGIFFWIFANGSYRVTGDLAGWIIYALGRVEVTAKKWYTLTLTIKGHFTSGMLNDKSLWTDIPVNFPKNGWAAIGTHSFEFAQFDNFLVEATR

The test addresses Galactocerebrosidase (Homo sapiens) (UniProt P54803). The experiment in a line: A Novel Cell-Based Assay to Identify Small Molecules for B -Galactocerebrosidase. Also: 0% is about no effect; nearly all actives have a fitted effect of over 65% in size. The settings on record: 145M-Twi-hGALC-G270D cells (Twitcher mouse brain line with human GALC G270D), HMU-beta-Gal fluorescence, 48 h; series mostly up to 57.5 µM; activation: at the top concentration. Put shortly:
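Brain-derived Twitcher mouse 145M-Twi cells stably expressing human GALC-G270D or wild-type GALC, treated live, then residual GALC activity read by fluorescence of HMU-b-Gal substrate (0.1 mM final) in citrate-phosphate buffer pH 5.2 with sodium taurocholate. Signal increase indicates enhancement.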
As to `CC(=O)c1ccc(NC(=O)C2CCC(CNS(=O)(=O)c3cccs3)CC2)cc1` (configuration not stated), the “activation” value is inactive: -11.5%.

As to `Cc1cccc(NC(=O)Cn2c(=O)ccc3cc(S(=O)(=O)N4CCCC4)ccc32)c1C`, the “activation” value was inactive: -5.99%.

Consider `COc1cccc(Cc2nc3ccccc3nc2SCC(=O)NCc2ccc(C)cc2)c1`, for which the “activation” value is inactive: 2.27%.

Consider `Cc1c(NC(=O)c2cc(-c3ccc(Cl)cc3)on2)c(=O)n(-c2ccccc2)n1C`, for which the “activation” value was inactive: 3.53%.

On to `CCOC(=O)c1[nH]c(C)c(CCC(=O)NCc2ccc(OC)cc2)c1C`, for which the “activation” value was inactive: -15.4%.

For the compound `COc1ccc(N2C(=O)CS(=O)(=O)C23C(=O)N(Cc2ccc(C)cc2)c2ccccc23)cc1Cl` (configuration not stated), the “activation” value is inactive: -23%.

With `O=C(NCc1ccc(F)cc1)c1ccc2c(c1)nnn2C1CCCC1`, the “activation” value was inactive: -16.4%.

Turning to `CCOc1ccc(NC(=O)N2CCN(Cc3cc(=O)n4nc(-c5ccc(OC)cc5)sc4n3)CC2)cc1`, the “activation” value is inactive: -7.15%.

Turning to `CCNC(=O)c1ccc(CSc2nc3ccncc3n2Cc2ccc(F)cc2)cc1`, the “activation” value is inactive: -26.5%.

As to `Cc1ccccc1-c1nnc(SCC(=O)N(C)C2CCCCC2)o1`, the “activation” value is inactive: -16%.

Regarding `Cc1ccc(NC(=O)N2CCN(c3cc(-c4noc(C)n4)ccc3C)CC2)c(C)c1`, the “activation” value is inactive: -15.2%.

As for `Cc1cccc(CCNC(=O)CN(c2ccc(C(C)C)cc2)S(=O)(=O)c2c(C)nn(C)c2C)c1`, the “activation” value was inactive: -18.7%.

Regarding `CCCCC(=O)O[C@]1(C(=O)CO)[C@@H](C)C[C@H]2[C@@H]3CCC4=CC(=O)C=C[C@]4(C)[C@@]3(F)[C@@H](O)C[C@@]21C`, the “activation” value is inactive: -15.9%.

Take `CO[C@]12C[C@@H](COC(=O)c3cncc(Br)c3)CN(C)[C@@H]1Cc1cn(C)c3cccc2c13`: the “activation” value was inactive: -12%.

On to `CCN(C(=O)Cn1cnc2onc(-c3ccc(F)cc3)c2c1=O)c1cc(C)ccc1C`, for which the “activation” value was inactive: -19.5%.

Turning to `CCn1c(C(=O)NCc2cc(Br)ccc2OC)cc2oc3ccccc3c21`, the “activation” value was inactive: -8.4%.

With `Cc1ccccc1OCC(=O)Nc1ccc2nc(SCc3ccccc3)sc2c1`, the “activation” value is inactive: -4.26%.

Regarding `CC(=O)c1ccc(NC(=O)c2nc(-c3ccc(C)cc3)n3c2CCCCC3)cc1`, the “activation” value was inactive: 6.6%.

For the compound `Cc1ccc(OCC(=O)Nc2nc(-c3ccc(Br)cc3)ns2)cc1C`, the “activation” value is inactive: -9.59%.

In the case of `COc1ccc(CNc2nc3ccccc3c3nc(-c4ccccc4)nn23)cc1`, the “activation” value is inactive: -5.18%.

As for `CCc1ccc(NS(=O)(=O)c2c(C)nc3sc(CC)nn3c2=O)cc1`, the “activation” value is inactive: -3.71%.

With `Cc1ccc(C)c(CN2C(=O)C3(c4ccccc42)N(c2ccc(Cl)cc2)C(=O)CS3(=O)=O)c1` (configuration not stated), the “activation” value was inactive: -25.2%.

In the case of `COc1ccc(CCNC(=O)C2CCN(c3nc4ccccc4nc3C(F)(F)F)CC2)c(OC)c1`, the “activation” value was inactive: -25.2%.

With `CC(=O)OCC(=O)[C@@]1(O)CC[C@H]2[C@@H]3CCC4=CC(=O)C=C[C@]4(C)[C@@]3(F)[C@@H](O)C[C@@]21C`, the “activation” value is inactive: -6.03%.

As to `COc1ccc(-c2ccc(NS(=O)(=O)c3cccc(C)c3)cc2)nn1`, the “activation” value is inactive: -11.4%.

On to `COc1ccc(OCC(=O)NC2CC(=O)N(c3ccc4c(c3)OCCO4)C2)cc1` (configuration not stated), for which the “activation” value is inactive: -4.34%.

For `CCOc1cccc(C2CC(=O)Nc3cc4c(cc32)OCCO4)c1` (configuration not stated), the “activation” value is inactive: -54.9%.

Turning to `CC(=O)N1c2ccccc2CC1C(=O)NCc1cccc(Cl)c1` (configuration not stated), the “activation” value is inactive: -3.32%.

For `COc1ccc(-c2cc(C)no2)cc1S(=O)(=O)N1CCN(c2ccccc2F)CC1`, the “activation” value was inactive: 9.65%.

Take `COc1ccc(CCNc2nc3c(-c4cccc(F)c4)nnn3c3ccccc23)cc1OC`: the “activation” value is inactive: -19%.

As for `Cc1cccc(NC(=O)CSc2nc(-c3ccccc3Cl)nc3c2Cc2c(CO)cnc(C)c2O3)c1C`, the “activation” value is inactive: -7.78%.

Turning to `CC1CCN(c2nc3c(S(=O)(=O)c4ccc(Cl)cc4)nnn3c3ccsc23)CC1`, the “activation” value was inactive: -13.7%.

In the case of `COc1cc(C(=O)N2CCOCC2)cc(OC)c1OC`, the “activation” value is inactive: -14.2%.

For the compound `COc1cc2c(cc1OC)n(Cc1ccc([N+](=O)[O-])cc1)c(=O)n1nc(-c3ccccc3)nc21`, the “activation” value was inactive: -10.3%.

For `COc1cc2c(cc1OC)C(COc1ccc3c(C)cc(=O)oc3c1)N(C(=O)c1ccccc1F)CC2` (configuration not stated), the “activation” value was inactive: 6.61%.

As to `Cc1ccccc1NC(=O)CSc1cn(CC(=O)N(C(C)C)C(C)C)c2ccccc12`, the “activation” value was inactive: -15.3%.

Turning to `COCCNC(=O)C1CCN(c2nc3ccccc3nc2C(F)(F)F)CC1`, the “activation” value is inactive: -12.1%.

Regarding `CCc1ccccc1NC(=O)c1ccc(CN2C(=O)CCn3nc(C)cc32)cc1`, the “activation” value is inactive: -8.9%.

For the compound `O=C(NCCC1=CCCCC1)c1ccc2c(=O)n3nc(Nc4ccccc4)sc3nc2c1`, the “activation” value is inactive: -2.16%.

`COc1ccc(NC(=O)c2c(NC(=O)COc3ccccc3)sc3c2CCC(C)C3)cc1` (configuration not stated): the “activation” value is inactive: -23.7%.

For `O=C(Nc1ccccc1C(F)(F)F)c1ccc2oc(=O)c(S(=O)(=O)c3ccc(F)cc3)cc2c1`, the “activation” value was inactive: -19%.

With `Cc1ccccc1CNC(=O)CN1C(=O)CSc2ccc(S(=O)(=O)N(C)C)cc21`, the “activation” value is inactive: -7.73%.

On to `COc1ccc(-c2noc(CCC(=O)Nc3ccc(C(F)(F)F)cc3)n2)cc1`, for which the “activation” value is inactive: -15.6%.

In the case of `COCCCNC(=O)c1cn(CCOC)c(=O)c2c1c1ccccc1n2C`, the “activation” value is inactive: -9.62%.

Regarding `Cc1ccc(NC(=O)CSc2nnc3[nH]c(=O)cc(-c4ccccc4)n23)cc1Cl`, the “activation” value was inactive: -17.3%.

As for `C#C[C@]1(O)CC[C@H]2[C@@H]3[C@H](C)CC4=C(CCC(=O)C4)[C@H]3CC[C@@]21C`, the “activation” value was inactive: -10.1%.

For `COc1ccc(CCNC(=O)Cc2c(C)c3c(cc(C)c4c(C)c(C)oc43)oc2=O)cc1`, the “activation” value is inactive: -7.39%.

(Values after PubChem BioAssay AID1159614 (National Center for Advancing Translational Sciences (NCATS), 2016).)
